This note sets out measurements from the supplement of paper PMC4967469.

IC50 is the fitted dose that halves viability relative to control wells, and lower means more sensitive; a fit beyond the top or the lowest dose is shown as a bound at that dose. For AUC the same curve is integrated over the 256-fold range of doses and scaled to a fraction; it is 1 without any effect and falls as sensitivity rises. Any top dose called inferred comes from the curve model; the source does not state it.

Compound in this assay: Cc1ccc(-c2c(C(=O)CF)n(CCCO)c3ncnc(N)c23)cc1 [FMK]
As to the kind of experiment: Viability of human cancer cell lines after 72 h of drug (GDSC screen). The settings on record: top dose inferred. Here is the method: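 Human cancer cell lines in 384-well plates, medium with 10% serum, drug for 72 h over a 256-fold dose range (nine 2-fold or five 4-fold steps up to the top dose). Adherent lines were fixed and stained with the nucleic acid dye Syto60, suspension lines read with resazurin; signal relative to control wells, capped at 0 and 100%. One two-parameter sigmoid per drug and line, fitted in a mixed model over all curves with the slope shared within a line.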
For “TE-5 (oesophagus, adherent, top dose 20 µM)”, the AUC came out at 0.976 and the IC50 (as a rule, the concentration at which inhibition is half-maximal) was more than 20 µM.
In the same order, the values of “TE-6 (oesophagus, adherent, top dose 20 µM)” are 0.986 and more than 20 µM.
In the same order, the values of “TE-8 (oesophagus, adherent, top dose 20 µM)” are 0.984 and more than 20 µM.
In the same order, the values of “TE-9 (oesophagus, adherent, top dose 20 µM)” are 0.982 and more than 20 µM.
“TE-10 (oesophagus, adherent, top dose 20 µM)”: the AUC turned out to be 0.983 and the IC50 is more than 20 µM.
Regarding “TE-11 (oesophagus, adherent, top dose 20 µM)”, the AUC worked out at 0.987 and the IC50 is more than 20 µM.
Regarding “TE-12 (oesophagus, suspension, top dose 20 µM)”, the AUC is 0.982 and the IC50 is more than 20 µM.
In the same order, the values of “TE-15 (oesophagus, suspension, top dose 20 µM)” are 0.899 and more than 20 µM.
In the same order, the values of “TGBC1TKB (biliary tract, adherent, top dose 20 µM)” are 0.987 and more than 20 µM.
The corresponding values for “TGBC24TKB (biliary tract, adherent, top dose 20 µM)” are 0.983 and more than 20 µM.
As for “TGW (neuroblastoma, adherent, top dose 20 µM)”, the AUC stood at 0.99 and the IC50 is more than 20 µM.
For “THP-1 (acute myeloid leukaemia, suspension, top dose 20 µM)”, the AUC is 0.98 and the IC50 was more than 20 µM.
The corresponding values for TK10 (kidney, adherent, top dose 20 µM) are 0.958 and more than 20 µM.
In the same order, the values of “TK (B-cell lymphoma, suspension, top dose 20 µM)” are 0.985 and more than 20 µM.
The corresponding values for “TOV-21G (ovary, adherent, top dose 20 µM)” are 0.985 and more than 20 µM.
With “TOV-112D (ovary, adherent, top dose 20 µM)”, the AUC was determined as 0.967 and the IC50 was more than 20 µM.
In the same order, the values of “TT2609-C02 (thyroid, adherent, top dose 20 µM)” are 0.973 and more than 20 µM.
The corresponding values for TT (thyroid, adherent, top dose 20 µM) are 0.983 and more than 20 µM.
In the same order, the values of “TUR (B-cell lymphoma, suspension, top dose 20 µM)” are 0.987 and more than 20 µM.
“TYK-nu (ovary, adherent, top dose 20 µM)”: the AUC stood at 0.981 and the IC50 is more than 20 µM.
The corresponding values for U031 (kidney, adherent, top dose 20 µM) are 0.942 and more than 20 µM.
In the same order, the values of U251 (glioma, adherent, top dose 20 µM) are 0.985 and more than 20 µM.
In the same order, the values of “U-2-OS (osteosarcoma, adherent, top dose 20 µM)” are 0.967 and more than 20 µM.
With “U-87-MG (glioma, adherent, top dose 20 µM)”, the AUC is 0.981 and the IC50 was more than 20 µM.
With “U-118-MG (glioma, adherent, top dose 20 µM)”, the AUC is 0.986 and the IC50 was more than 20 µM.
Consider “U-698-M (B-cell leukaemia, suspension, top dose 20 µM)”, for which the AUC was 0.984 and the IC50 was more than 20 µM.
The corresponding values for “UACC-62 (melanoma, adherent, top dose 20 µM)” are 0.988 and more than 20 µM.
In the same order, the values of “UACC-257 (melanoma, adherent, top dose 20 µM)” are 0.941 and more than 20 µM.
For “UACC-812 (breast, adherent, top dose 20 µM)”, the AUC was 0.99 and the IC50 is more than 20 µM.
In the same order, the values of “UACC-893 (breast, adherent, top dose 20 µM)” are 0.975 and more than 20 µM.
The corresponding values for “UM-UC-3 (bladder, adherent, top dose 20 µM)” are 0.978 and more than 20 µM.
In the case of “UMC-11 (lung carcinoid, adherent, top dose 20 µM)”, the AUC was 0.986 and the IC50 was more than 20 µM.
The corresponding values for “VA-ES-BJ (soft tissue, adherent, top dose 20 µM)” are 0.985 and more than 20 µM.
For the cell line “VAL (B-cell lymphoma, suspension, top dose 20 µM)”, the AUC was 0.973 and the IC50 was more than 20 µM.
The corresponding values for “VM-CUB-1 (bladder, adherent, top dose 10.24 µM)” are 0.988 and more than 10.2 µM.
The corresponding values for “VMRC-RCW (kidney, adherent, top dose 20 µM)” are 0.986 and more than 20 µM.
In the case of “VMRC-RCZ (kidney, adherent, top dose 20 µM)”, the AUC was found to be 0.977 and the IC50 was more than 20 µM.
The corresponding values for “WIL2-NS (lymphoid neoplasm, suspension, top dose 20 µM)” are 0.992 and more than 20 µM.
For “WM35 (melanoma, adherent, top dose 20 µM)”, the AUC was 0.969 and the IC50 was more than 20 µM.
In the same order, the values of “WM278 (melanoma, adherent, top dose 20 µM)” are 0.961 and more than 20 µM.
Consider “WM793B (melanoma, adherent, top dose 20 µM)”, for which the AUC is 0.893 and the IC50 was more than 20 µM.
The corresponding values for “WM1552C (melanoma, adherent, top dose 20 µM)” are 0.925 and more than 20 µM.
The corresponding values for “WM-115 (melanoma, adherent, top dose 20 µM)” are 0.976 and more than 20 µM.
In the same order, the values of “WSU-DLCL2 (B-cell lymphoma, suspension, top dose 20 µM)” are 0.993 and more than 20 µM.
On to “WSU-NHL (lymphoid neoplasm, suspension, top dose 20 µM)”, for which the AUC turned out to be 0.979 and the IC50 was more than 20 µM.
The corresponding values for “YAPC (pancreas, adherent, top dose 20 µM)” are 0.965 and more than 20 µM.
The corresponding values for “YH-13 (glioma, adherent, top dose 10.24 µM)” are 0.98 and more than 10.2 µM.
As for “YKG-1 (glioma, adherent, top dose 20 µM)”, the AUC was 0.984 and the IC50 was more than 20 µM.
In the same order, the values of “YMB-1-E (breast, adherent, top dose 20 µM)” are 0.981 and more than 20 µM.
“YT (lymphoid neoplasm, suspension, top dose 20 µM)”: the AUC amounted to 0.895 and the IC50 is 17.8 µM.
huH-1 (liver, adherent, top dose 20 µM): the AUC was determined as 0.984 and the IC50 is more than 20 µM.
